Measurements from PubChem BioAssay AID686970 (National Center for Advancing Translational Sciences (NCATS), 2013).
Hit rate of the full screen: of about 360,000 compounds, about 6,000 (1.7%) were called active. Inconclusive results, whose numbers are uncertain, are shown with a selection of clear calls. Calls come from the whole dose curve; as a rule, active = well fitted cell-killing curve with a large enough effect; inconclusive = small, poorly fitted or top-dose-only effect, or effect the other way; inactive = flat fitted curve, though single readings scatter. Potencies of inconclusive entries are left out as doubtful fits.

Test: qHTS for induction of synthetic lethality in tumor cells producing 2HG: qHTS for the HT-1080-NT fibrosarcoma cell line;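 note: NT is the 2HG producing partner of a matched IDH1 knockdown line; nearly all actives have a fitted effect of over 55% in size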;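 for activity, negative = less viability: 0% = DMSO-treated cells and -100% = media-only wells without cells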
Details: HT-1080-NT fibrosarcoma viability, CellTiter-Glo ATP luminescence, 48 h; activity, negative = less viability: at 46.1 µM (top of the series) unless noted
Method in brief: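 A 48-hour cytotoxicity screen used HT-1080-NT cells plated 2 hours before compound delivery. ATP-based CellTiter-Glo luminescence measured viability, normalized to DMSO and no-cell controls.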
Potency is the fitted concentration of half-maximal effect; tags give direction and shape of the fitted curve.

Structure (SMILES)	activity, negative = less viability	Potency
CC(C)c1ccc(/C=C(\NC(=O)c2ccccc2)C(=O)NCCCN2CCOCC2)cc1	inactive: -15.4%	–
Cc1c(/C=N/NC(=O)c2cccnc2)c2ccccc2n1Cc1ccccc1	–	inconclusive [cytotoxic, partial curve]
O=[N+]([O-])c1cc(-c2ccccc2)cc([N+](=O)[O-])c1O	–	active: 18.4 µM
O=C1C=CC2(C=C1)O[C@H](Cc1ccccc1)[C@@H](Cc1ccccc1)O2	–	active: 3.66 µM
C=CCn1c(O)c(N=O)c2ccccc21	inactive: 4.62%	–
Cc1cc(C(=O)NN=C2C3CC4CC(C3)CC2C4)c2ccccc2n1	–	inconclusive [cytotoxic, single point]
O=c1[nH]c(-c2ccccn2)nc2ccccc12	–	inconclusive [cytotoxic, single point]
CCc1c(C)nc(N)nc1Cl	inconclusive: 30.7%	–
CCN1CCN(C2=C(NS(=O)(=O)c3ccc(C)cc3)C(=O)c3ccccc3C2=O)CC1	–	inconclusive [cytotoxic, single point]
C(=C\c1ccccc1)/CN1CCN(C(c2ccccc2)c2nnnn2C2CCCC2)CC1 (centres undefined)	–	inconclusive [cytotoxic, partial curve]
O=S1(=O)N[C@H](Cc2ccccc2)COc2cc(N3CCC[C@@H]3CO)ccc21	–	inconclusive [cytotoxic, single point]
CCN(CC)CCNC(=O)c1c(C)n(-c2ccccc2)c2cc(Br)c(OC)cc12	–	inconclusive [cytotoxic, single point]
C/C(=N/NC(=O)c1ccccn1)c1ccco1	–	inconclusive [cytotoxic, single point]
CC(=O)c1c(C)oc2ccc(N(C(C)=O)S(=O)(=O)c3ccc(Cl)c([N+](=O)[O-])c3)cc12	–	inconclusive [cytotoxic, partial curve]
C#Cc1ccc(NC(=O)C2(C)CCN2C(=O)Cc2ccc(-c3ccccc3)cc2)cc1 (centres undefined)	–	inconclusive [cytotoxic, partial curve]
CCOc1ccccc1N(CC(=O)Nc1ccccc1C(=O)NCc1ccco1)S(C)(=O)=O	inactive: 6.38%	–
COc1ccc(Oc2c(-c3ccc(O)cc3O)n[nH]c2C)cc1	–	inconclusive [cytotoxic, single point]
CNC(=O)CSc1nc(-c2ccccc2)c(-c2ccccc2)[nH]1	–	inconclusive [cytotoxic, single point]
COc1ccc(CC(N)c2csc(Nc3nncc4ccccc34)n2)cc1 (centres undefined)	–	inconclusive [cytotoxic, single point]
Cn1cc(/C=C2\SC(=O)NC2=S)c2ccccc21	–	inconclusive [cytotoxic, single point]
Oc1cccc2ccc(/C=C/c3cccs3)nc12	–	inconclusive [cytotoxic, single point]
COc1ccc(/C(C)=N\Nc2nc(-c3ccccc3)cc(=O)[nH]2)cc1	inactive: -0.888%	–

Structure (SMILES)	activity, negative = less viability	Potency
CN1CCCC(C)(C(=O)Nc2ccc3scnc3c2)C1 (centres undefined)	–	inconclusive [rising, single point]
N#Cc1cc(N2CCCCC2)c([N+](=O)[O-])cc1C#N	inactive: 0.73%	–
COc1ccc(C(C)C)cc1S(=O)(=O)Nc1cccnc1	inconclusive: -6.13% [cytotoxic]	–
COc1ccc(Br)cc1C(C[N+](=O)[O-])c1c(N)n(C)c(=O)n(C)c1=O (centres undefined)	–	inconclusive [cytotoxic, full curve]
O=C(C1=C[C@@H](C2CCCCC2)C[C@@H](OCc2ccc(CO)cc2)O1)N1CCN(Cc2ccc3c(c2)OCO3)CC1	–	inconclusive [cytotoxic, single point]
CCCCC(=O)N1CCN(c2nc3ccc(Cl)cc3s2)CC1	–	inconclusive [cytotoxic, full curve]
O=C1CCN(CCc2ccccc2)CCN1[C@H](CSc1ccc(Br)cc1)Cc1ccccc1	inactive: -12.6%	–
COc1ccc(C(c2nnnn2Cc2ccc(F)cc2)N2CCN(c3ccccc3)CC2)cc1 (centres undefined)	inactive: -7.78%	–
CCCOc1ccc(-c2c(C(=O)N/N=C(\C)c3cccs3)nnn2-c2nonc2N)cc1	inactive: 6.77%	–
O=S(=O)(NN1CCOCC1)c1cc(Cl)cc(Cl)c1O	inactive: 5.62%	–
COc1ccc(NC(=O)Cn2nnc(-c3ccccc3NC(=O)c3ccco3)n2)cc1	–	inconclusive [cytotoxic, full curve]
Cc1cc(C(=O)CSc2nnnn2C)c(C)n1CCc1ccc(F)cc1	–	inconclusive [cytotoxic, single point]
Cc1ccc(S(=O)(=O)NCC[C@@]2(C)C3CCC2(C)C(=O)C3)cc1 (some centres undefined)	inactive: 1.27%	–
OC1CCCN(c2c3c(nc4cc(-c5cccc(Cl)c5)nn24)CCC3)C1 (centres undefined)	–	inconclusive [cytotoxic, single point]
C[n+]1cccc2ccc3c(c21)OC(N)=C(C#N)C3c1ccccc1 (centres undefined)	–	inconclusive [cytotoxic, single point]
Cc1cc[n+](CC(=O)c2ccc(NC(=O)c3ccccc3)cc2)c2ccccc12	–	inconclusive [cytotoxic, single point]
CC(C)c1ccc(S(=O)(=O)/N=C2/C=C(Sc3ncn[nH]3)C(=O)c3ccccc32)cc1	–	active: 2.91 µM
CCOC(=O)c1cc(-c2ccc(C)cc2)n(CCC(=O)NCCN(C)C)c1C	–	inconclusive [cytotoxic, single point]
CC(C)CCNC(=O)C(=O)Nc1ccc2c(c1)N(S(=O)(=O)c1cccs1)CCC2	–	active: 3.26 µM
Cc1nc(NCCc2ccc(O)cc2)c2nnn(Cc3ccccc3)c2n1	inconclusive: -20% [cytotoxic]	–
CCOC(=O)c1c(NC(C)=O)sc2c(OCC(O)CNC(C)(C)C)c(Br)ccc12 (centres undefined)	–	inconclusive [cytotoxic, single point]
CCOC(=O)COc1ccc(S(=O)(=O)NCc2ccncc2)cc1	–	inconclusive [cytotoxic, single point]
